Assay results published in the supplement of paper PMC10126150.
Sequences with one replicate were seen in a single cluster, so their values are uncertain.

tested on: ATP; experiment: switch fluorescence ratio, 500 uM ATP over buffer (Cy3 cluster intensity, sum of 5 cycles each) (fold (ratio)); higher = stronger signal-on switching upon ATP binding; sequences stand for … in TCGTCGGCAGCGTCAGATGTGTATAAGAGACAGTTTTTTTTTTTTTTTTTTTTTTTTT…TC; conditions: aptamer strand: ATP DNA aptamer (quencher-CACCTGGGGGAGTATTGCGGAGGAAGG + anchor), 100 nM annealed; ATP concentration: 500 uM; one replicate
How it was run: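 Clusters with intensities outside 100-1000 RFU were excluded. The remaining Cy3-labelled switching-strand clusters on a modified Illumina MiSeq flow-cell had been annealed to 100 nM quencher-labelled ATP aptamer and imaged in selection buffer, then after 15 min with 500 uM ATP at 22 °C, for five cycles separated by NaOH stripping and re-annealing. The fluorescence ratio, averaged per switch-domain sequence, is each cluster's summed target-cycle Cy3 intensity over its summed buffer-cycle Cy3 intensity.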
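Further: ATP exposure 15 min at 22 °C before imaging.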

Row | Sequence | switch fluorescence ratio
1 | ATTCTGTTGA | 1.02
2 | ATTCTTCTTT | 1.01
3 | ATTCTTGATG | 1.02
4 | ATTGAACG | 1.08
5 | ATTGAAGACC | 1.03
6 | ATTGAAGCGC | 1.05
7 | ATTGACGTAA | 1.15
8 | ATTGACTCTC | 1.05
9 | ATTGATGGAC | 1.04
10 | ATTGATGGG | 0.996
11 | ATTGCAAAGG | 0.981
12 | ATTGCACCAG | 1.04
13 | ATTGCCCCGG | 1.26
14 | ATTGCTCAGC | 1.07
15 | ATTGCTCGG | 0.931
16 | ATTGCTGGAA | 1.02
17 | ATTGCTGGGA | 0.991
18 | ATTGCTTTGT | 1.03
19 | ATTGGAGTA | 0.968
20 | ATTGGCGGGT | 1.01
21 | ATTGGCTAAA | 1.05
22 | ATTGGCTAGC | 1.02
23 | ATTGGGCCGT | 0.941
24 | ATTGGGGACA | 1.05
25 | ATTGGGTGCG | 0.952
26 | ATTGGTCTTG | 1.01

Row | Sequence | switch fluorescence ratio
27 | ATTGTAGTAC | 1.05
28 | ATTGTATACG | 0.996
29 | ATTGTATCGG | 0.998
30 | ATTGTATGCA | 1.01
31 | ATTGTATGCT | 0.999
32 | ATTGTGAGAA | 0.997
33 | ATTGTGCCGT | 1.02
34 | ATTGTGCTTC | 0.987
35 | ATTGTGTCGG | 0.966
36 | ATTGTGTTTG | 1.03
37 | ATTTAACTGT | 1.02
38 | ATTTAAGACT | 0.972
39 | ATTTACGCAA | 5.11
40 | ATTTACGGGC | 1.1
41 | ATTTAGCAAT | 2.73
42 | ATTTAGGAAC | 0.988
43 | ATTTAGTCT | 0.932
44 | ATTTAGTTG | 0.977
45 | ATTTAT | 0.993
46 | ATTTATAATG | 0.992
47 | ATTTCATTTG | 1.06
48 | ATTTCGCACG | 1.03
49 | ATTTCGGCT | 1
50 | ATTTCGGCTC | 0.978
51 | ATTTCGGG | 0.98
52 | ATTTCGTAAC | 0.981

Row | Sequence | switch fluorescence ratio
53 | ATTTCTAATA | 0.943
54 | ATTTCTATA | 1.04
55 | ATTTCTCGAT | 0.987
56 | ATTTCTCTA | 1.04
57 | ATTTCTGTTG | 0.998
58 | ATTTGAGGCA | 0.984
59 | ATTTGATTAA | 0.974
60 | ATTTGCCTAG | 0.993
61 | ATTTGCGTTG | 1.02
62 | ATTTGGACAT | 1.05
63 | ATTTGGTAGA | 1
64 | ATTTGGTCGA | 1.06
65 | ATTTGTAGGA | 0.953
66 | ATTTGTTGAG | 0.946
67 | ATTTTAATGT | 1.06
68 | ATTTTAGTAT | 1.01
69 | ATTTTCAATA | 0.992
70 | ATTTTCACGT | 1.02
71 | ATTTTCTAGT | 1.02
72 | ATTTTGATCG | 1.01
73 | ATTTTGATGG | 0.954
74 | ATTTTGGTGT | 1.03
75 | ATTTTTCTT | 0.999
76 | ATTTTTGTGC | 1.07
77 | CAAAAAAAAT | 1.04
78 | CAAAAAGGTC | 1.02

Row | Sequence | switch fluorescence ratio
79 | CAAAAAGTTA | 1.04
80 | CAAAAGGCCT | 1.01
81 | CAAAATAGGC | 1.08
82 | CAAACAACGG | 1.03
83 | CAAACAAGTG | 0.988
84 | CAAACCGTTG | 1.06
85 | CAAACCTTCT | 1.48
86 | CAAACGATTT | 1.01
87 | CAAACGTTTC | 1.03
88 | CAAACTATGA | 1
89 | CAAACTTTTT | 0.975
90 | CAAAGCATC | 1.43
91 | CAAAGCCTAG | 0.988
92 | CAAAGCTGTT | 1.01
93 | CAAAGGGCTG | 0.992
94 | CAAAGTATCT | 0.998
95 | CAAAGTTTTC | 1.06
96 | CAAATAGGCG | 0.983
97 | CAAATCACGC | 1.09
98 | CAAATCCCGG | 1.04
99 | CAAATCGCAA | 4.05
100 | CAAATGACTA | 1.04
101 | CAAATGCATC | 1.06
102 | CAAATGGCGC | 1
103 | CAAATGGTCG | 1.03
104 | CAAATTAGGT | 0.981

Row | Sequence | switch fluorescence ratio
105 | CAAATTATTT | 1.02
106 | CAAATTTTAG | 0.989
107 | CAACAAGTAG | 1.03
108 | CAACACATTC | 1.25
109 | CAACAGAATA | 0.997
110 | CAACAGGGTC | 1.05
111 | CAACCATTAG | 0.994
112 | CAACCCAATA | 1.96
113 | CAACGCATGT | 1.12
114 | CAACGCGTCG | 1.01
115 | CAACGGCTCT | 1.01
116 | CAACGGGGAA | 1.07
117 | CAACGTTTGA | 0.991
118 | CAACTAAAAT | 1.06
119 | CAACTAAATG | 1.01
120 | CAACTAGTCC | 0.983
121 | CAACTCACAC | 1.3
122 | CAACTCAGGG | 1.04
123 | CAACTCATTC | 1.05
124 | CAACTCTGAG | 0.996
125 | CAACTTCCCT | 1.05
126 | CAACTTGAAT | 0.965
127 | CAAGAAGGGA | 1.01
128 | CAAGACACTA | 1.09
129 | CAAGACCGTT | 0.968
130 | CAAGACCTCG | 0.981

Row | Sequence | switch fluorescence ratio
131 | CAAGACTGAG | 0.999
132 | CAAGATATGG | 0.994
133 | CAAGATTCGC | 0.977
134 | CAAGCCCGGC | 1.01
135 | CAAGCCTCGT | 1.02
136 | CAAGCCTGC | 1.05
137 | CAAGCGCCCA | 1.02
138 | CAAGCTGAGC | 0.985
139 | CAAGGAGAGT | 0.987
140 | CAAGGCACGG | 0.928
141 | CAAGGCCAAG | 1
142 | CAAGGCTGCT | 1.01
143 | CAAGGGACCT | 0.992
144 | CAAGGGCTAT | 0.99
145 | CAAGGGGTTG | 1.03
146 | CAAGGGTTCT | 0.999
147 | CAAGTATTAG | 1.01
148 | CAAGTCTTGG | 0.981
149 | CAAGTGATGG | 0.949
150 | CAAGTTAACA | 1
151 | CAAGTTACGG | 1.06
152 | CAAGTTCAGT | 1.01
153 | CAAGTTCCCC | 1.14
154 | CAAGTTTGCG | 0.966
155 | CAATACCAAT | 1.04
156 | CAATACCGC | 1.21

Row | Sequence | switch fluorescence ratio
157 | CAATACCTAA | 1.03
158 | CAATACTAGA | 1.02
159 | CAATAGAATG | 1.02
160 | CAATAGCTAC | 3.43
161 | CAATATTCCG | 0.986
162 | CAATCATGGG | 1
163 | CAATCATTG | 0.972
164 | CAATCCCATC | 1.05
165 | CAATCCCTAA | 0.97
166 | CAATCCTGTT | 1.03
167 | CAATCGCGCC | 1.15
168 | CAATCTAGAA | 1.01
169 | CAATGAAGGG | 0.982
170 | CAATGACCCA | 0.996
171 | CAATGAGGCT | 0.995
172 | CAATGAGGTC | 0.851
173 | CAATGAGTTC | 0.998
174 | CAATGATTTA | 0.974
175 | CAATGCAGTC | 1.06
176 | CAATGCCAGT | 1.01
177 | CAATGCCTTG | 1.02
178 | CAATGCCTTT | 1.06
179 | CAATGCGCTG | 1
180 | CAATGCTCTT | 1.15
181 | CAATGGTACT | 1.05
182 | CAATGGTCT | 1.03

Row | Sequence | switch fluorescence ratio
183 | CAATGTTGGA | 0.966
184 | CAATGTTTTG | 1.04
185 | CAATTAAGAG | 0.995
186 | CAATTAGCGA | 1.08
187 | CAATTAGCGT | 0.977
188 | CAATTCTCCG | 1.08
189 | CAATTGAGTC | 1.06
190 | CAATTTCAGT | 0.971
191 | CACAAAGGG | 0.991
192 | CACAATGGTA | 0.995
193 | CACACAGGCT | 1.09
194 | CACACCGTGT | 0.954
195 | CACACTAAGA | 1.01
196 | CACACTCCCT | 1.52
197 | CACAGAAGC | 1.06
198 | CACAGAGCCC | 1.04
199 | CACAGAGGTT | 0.984
200 | CACAGCAGAT | 1.2
201 | CACAGGATCG | 0.982
